From publication PMC4336329 (PLoS ONE, 2015)
Out of some 310,000 compounds screened, about 2,200 (0.71%) showed an effect of 50% or more. The effect is printed as a negative number. Some of the results follow.

Each molecule was assayed against human ether-à-go-go-related gene (hERG) potassium channel (human, UniProt Q12809) (assay: primary screen, population patch clamp on CHO cells stably expressing hERG).
human ether-à-go-go-related gene (hERG) potassium channel, sequence (Q12809 whole entry, looked up): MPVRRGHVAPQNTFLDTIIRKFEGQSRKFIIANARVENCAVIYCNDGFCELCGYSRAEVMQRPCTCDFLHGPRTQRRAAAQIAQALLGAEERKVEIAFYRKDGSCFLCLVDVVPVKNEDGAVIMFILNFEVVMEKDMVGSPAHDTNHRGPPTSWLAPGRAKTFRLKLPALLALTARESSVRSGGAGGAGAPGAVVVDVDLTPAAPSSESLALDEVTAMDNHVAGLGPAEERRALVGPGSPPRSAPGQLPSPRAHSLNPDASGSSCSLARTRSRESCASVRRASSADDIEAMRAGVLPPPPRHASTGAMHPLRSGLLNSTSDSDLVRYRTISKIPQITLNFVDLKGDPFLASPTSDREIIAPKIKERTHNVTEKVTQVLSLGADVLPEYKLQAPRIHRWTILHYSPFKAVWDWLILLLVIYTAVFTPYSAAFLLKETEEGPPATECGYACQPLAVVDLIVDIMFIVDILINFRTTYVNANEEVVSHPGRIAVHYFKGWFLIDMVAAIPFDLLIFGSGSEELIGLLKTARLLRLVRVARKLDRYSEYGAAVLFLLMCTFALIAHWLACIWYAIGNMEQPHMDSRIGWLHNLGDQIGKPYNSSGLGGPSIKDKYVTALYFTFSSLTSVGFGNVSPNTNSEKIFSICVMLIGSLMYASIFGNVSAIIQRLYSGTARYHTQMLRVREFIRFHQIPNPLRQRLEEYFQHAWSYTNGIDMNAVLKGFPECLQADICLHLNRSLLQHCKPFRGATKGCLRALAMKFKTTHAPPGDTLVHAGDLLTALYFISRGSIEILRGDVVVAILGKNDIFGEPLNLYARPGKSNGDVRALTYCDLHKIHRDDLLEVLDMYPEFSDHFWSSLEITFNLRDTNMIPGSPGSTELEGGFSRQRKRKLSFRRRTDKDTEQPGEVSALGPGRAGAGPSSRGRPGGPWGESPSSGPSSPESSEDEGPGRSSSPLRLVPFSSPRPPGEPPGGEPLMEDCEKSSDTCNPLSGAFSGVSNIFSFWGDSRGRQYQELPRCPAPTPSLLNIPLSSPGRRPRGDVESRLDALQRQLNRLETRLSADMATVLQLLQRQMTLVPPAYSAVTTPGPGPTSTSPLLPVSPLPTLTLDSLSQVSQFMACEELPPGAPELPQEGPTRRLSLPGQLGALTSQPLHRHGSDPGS
With `Cn1cnnc1SCc1ccc(F)c2ccccc12` the “hERG current change (%, negative = inhibition) at 1uM” value was -0.911%. In the case of `CC(=O)c1sc(-c2ccccc2)cc1NS(=O)(=O)c1ccccc1`, the “hERG current change (%, negative = inhibition) at 1uM” value is reported as 12.9%. For `Cn1c(O)c(C(=Nc2ccccc2)SCc2ccc(Cl)cc2)c(=O)n(C)c1=O`, the “hERG current change (%, negative = inhibition) at 1uM” value was 16.6%. `COc1ccc(CC(=O)Nc2nc3ccccc3s2)cc1S(=O)(=O)N1CCOCC1` was tested, and the “hERG current change (%, negative = inhibition) at 1uM” value was 1.25%. For `Cc1cc(-n2cnnn2)cc(C)c1S(=O)(=O)N(C)c1ccccc1`, the “hERG current change (%, negative = inhibition) at 1uM” value was 13.8%. For `CCOn1c(=O)c(-c2cccs2)[n+]([O-])c2ccccc21`, the “hERG current change (%, negative = inhibition) at 1uM” value was -10.2%. In the case of `O=C(CSc1ncccc1C(=O)O)c1cccc(C(F)(F)F)c1`, the “hERG current change (%, negative = inhibition) at 1uM” value is reported as 0.384%. For `CCOC(=O)c1c(C)[nH]c(C(=O)OC(C)C(=O)NCc2ccccc2)c1C` (stereo not drawn), the “hERG current change (%, negative = inhibition) at 1uM” value was 15.8%. With `O=C(OCCN1C(=O)c2ccccc2C1=O)c1cc(=O)[nH]c2ccccc12` the “hERG current change (%, negative = inhibition) at 1uM” value was 16.9%. With `CC(O)/C=C/c1cccc[n+]1C.[I-]` (stereo not drawn) the “hERG current change (%, negative = inhibition) at 1uM” value was 2.85%. For `O=[N+]([O-])c1ccc(Cl)cc1NCC1CCCO1` (stereo not drawn), the “hERG current change (%, negative = inhibition) at 1uM” value was 6.39%. For `O=C(CCn1cnnn1)Nc1ccc(Cl)cc1Cl`, the “hERG current change (%, negative = inhibition) at 1uM” value was 9.2%. For `CC1CC(C)CN(c2nc(NCc3ccco3)nc(N)c2[N+](=O)[O-])C1` (stereo not drawn), the “hERG current change (%, negative = inhibition) at 1uM” value was -14.4%. With `CCCCN1C(=O)/C(=C/C=C2\N(C)c3ccccc3C2(C)C)SC1=S` the “hERG current change (%, negative = inhibition) at 1uM” value was 18.3%. With `COc1cc(C2NC(=O)NC(O)(C(F)(F)F)C2C(=O)c2ccc(Cl)cc2)ccc1O` (stereo not drawn) the “hERG current change (%, negative = inhibition) at 1uM” value was 7.72%. For `COc1ccc(Cl)cc1NC(=O)CN(C)C(=O)Cc1ccsc1`, the “hERG current change (%, negative = inhibition) at 1uM” value was -3.38%. In the case of `N#CCC(=O)N/N=C/c1cccc(Oc2ccccc2)c1`, the “hERG current change (%, negative = inhibition) at 1uM” value is reported as 11.6%. `COc1ccc(C(CNC(=O)C(=O)NC2CCCCC2)N2CCN(C)CC2)cc1` (stereo not drawn) was tested, and the “hERG current change (%, negative = inhibition) at 1uM” value was -2.33%. For `O=[N+]([O-])c1ccc(O)c(NC(=S)Nc2ccccc2)c1`, the “hERG current change (%, negative = inhibition) at 1uM” value was 15%. `COc1cc(/C=C2/C(=N)N3C(=NC2=O)SN=C3S(C)(=O)=O)ccc1OS(=O)(=O)c1ccccc1` was tested, and the “hERG current change (%, negative = inhibition) at 1uM” value was 14.2%. `O=C(O)c1ccc(Sc2nnnn2-c2ccccc2)c([N+](=O)[O-])c1` was tested, and the “hERG current change (%, negative = inhibition) at 1uM” value was 4.93%. `COc1ccc(NC(=O)C2CCCC2)cc1` was tested, and the “hERG current change (%, negative = inhibition) at 1uM” value was 14.6%. `CC(C)(C)OC(=O)N1CCC(c2c(C(=O)NC3CC3)cnn2-c2ccc(Cl)cc2)CC1` was tested, and the “hERG current change (%, negative = inhibition) at 1uM” value was 6.61%. For `CC(NC(=O)c1ccccc1F)c1nnc(SCC(=O)NC2=NCCS2)n1C` (stereo not drawn), the “hERG current change (%, negative = inhibition) at 1uM” value was 14.2%. For `CCCCCN(C(=O)CCC(=O)OCc1cc(C)ccc1C)c1c(N)n(CCCC)c(=O)[nH]c1=O`, the “hERG current change (%, negative = inhibition) at 1uM” value was -2.23%. For `O=C(C(c1ccccc1)c1ccccc1)N1CCCc2ccccc21`, the “hERG current change (%, negative = inhibition) at 1uM” value was 6.77%. In the case of `Cc1cccc2c1=NC(=O)/C(=C/c1c(O)[nH]c(=O)[nH]c1=O)C=2`, the “hERG current change (%, negative = inhibition) at 1uM” value is reported as 3.92%. With `Cc1cccc(C)c1NC(=O)CN(C)CC(=O)Nc1sc2c(c1C(N)=O)CCC2` the “hERG current change (%, negative = inhibition) at 1uM” value was 4.74%. `CCN(C(=O)COc1ncnc2sccc12)c1ccccc1` was tested, and the “hERG current change (%, negative = inhibition) at 1uM” value was 29.4%. For `CC1CN(C(=O)CCc2cc(C(C)(C)C)c(O)c(C(C)(C)C)c2)CC(C)O1` (stereo not drawn), the “hERG current change (%, negative = inhibition) at 1uM” value was -3.11%. `CCOC(=O)Cn1c(=O)oc2cc(S(=O)(=O)NCCCc3ccccc3)ccc21` was tested, and the “hERG current change (%, negative = inhibition) at 1uM” value was 7.34%. In the case of `CCOc1ncccc1C(=O)OCc1ccccc1`, the “hERG current change (%, negative = inhibition) at 1uM” value is reported as 20.6%. With `Cc1cc(C(=O)N2CCN(Cc3ccccc3)CC2)ccc1[N+](=O)[O-]` the “hERG current change (%, negative = inhibition) at 1uM” value was -1.23%. With `CC1CCN(c2ccc(C(=O)N3CCOCC3)cc2[N+](=O)[O-])CC1` the “hERG current change (%, negative = inhibition) at 1uM” value was 7.52%. `Cc1cccc(NC(=O)CN2CCN(C(=O)C3CCN(C(=O)/C=C/c4ccccc4)CC3)CC2)c1C` was tested, and the “hERG current change (%, negative = inhibition) at 1uM” value was -56.6%. `CC(C)Nc1nc(Cl)nc(N(C#N)CN2C(=O)c3ccccc3S2(=O)=O)n1` was tested, and the “hERG current change (%, negative = inhibition) at 1uM” value was 6.53%. With `CC(=O)Nc1ccc(S(=O)(=O)N2CCN(S(=O)(=O)c3ccccc3)CC2)cc1` the “hERG current change (%, negative = inhibition) at 1uM” value was 10.1%. `Cc1ccnc(NC(=O)C2CCCN(c3ncnc4c3nc3n4CCCCC3)C2)c1` (stereo not drawn) was tested, and the “hERG current change (%, negative = inhibition) at 1uM” value was -2.98%. `CNc1ccc(SC#N)cc1.Cl` was tested, and the “hERG current change (%, negative = inhibition) at 1uM” value was 16.3%. For `COC(=O)CSc1nccc(-c2cccs2)n1`, the “hERG current change (%, negative = inhibition) at 1uM” value was 5.24%. `CCOC(=O)C(NC(=O)Nc1ccc(F)cc1F)(Oc1ccccc1)C(F)(F)F` (stereo not drawn) was tested, and the “hERG current change (%, negative = inhibition) at 1uM” value was 5.44%. With `CSc1nnc(N2C(=O)C(O)=C(C(=O)c3ccco3)C2c2ccccc2)s1` (stereo not drawn) the “hERG current change (%, negative = inhibition) at 1uM” value was 11.2%. For `CC(Cc1ccccc1)C(=O)NCc1ccncc1` (stereo not drawn), the “hERG current change (%, negative = inhibition) at 1uM” value was 18.1%. In the case of `C/C(N)=C(/C#N)C(=O)COC(=O)c1cc(C)n(-c2ccc(F)cc2)c1C`, the “hERG current change (%, negative = inhibition) at 1uM” value is reported as 17.8%. `CCOc1ccc2nc(SCC(=O)NC3CCS(=O)(=O)C3)[nH]c2c1` (stereo not drawn) was tested, and the “hERG current change (%, negative = inhibition) at 1uM” value was 8.46%. In the case of `CSc1ccc(/C=N/NC(=O)CNc2cccc3ccccc23)cc1`, the “hERG current change (%, negative = inhibition) at 1uM” value is reported as -13.3%. For `C/C(CC(=O)Nc1cc(C)ccn1)=N\NC(=O)c1cccc(F)c1`, the “hERG current change (%, negative = inhibition) at 1uM” value was 12.3%. With `CN1C(=O)C(=O)/C(=C(/O)c2ccccc2)C1c1ccc(Br)cc1` (stereo not drawn) the “hERG current change (%, negative = inhibition) at 1uM” value was 9.7%. `CC1(C)CC(=O)C=C(c2cccs2)C1` was tested, and the “hERG current change (%, negative = inhibition) at 1uM” value was 9.28%. For `CS(=O)(=O)N1CCN(c2ccc(C(=O)N3CCOCC3)cc2[N+](=O)[O-])CC1`, the “hERG current change (%, negative = inhibition) at 1uM” value was 6.05%. With `CCCCOc1cccc(C2C(C(=O)c3cccs3)=C(O)C(=O)N2Cc2cccnc2)c1` (stereo not drawn) the “hERG current change (%, negative = inhibition) at 1uM” value was 20.5%. `O=C(Nc1nncs1)C1CC(=O)N(C2CCCC2)C1` (stereo not drawn) was tested, and the “hERG current change (%, negative = inhibition) at 1uM” value was -8.69%. In the case of `O=C(O)c1cc2[nH]c3c(c2cc1Cl)CCCC3`, the “hERG current change (%, negative = inhibition) at 1uM” value is reported as -4.58%. `COC(=O)C(C(=O)Nc1nc2ccccc2s1)C1CCCC1` (stereo not drawn) was tested, and the “hERG current change (%, negative = inhibition) at 1uM” value was 7.19%. With `COc1cc(OC)c2c3c(c(C4CCCCC4)nc2c1)CCC3` the “hERG current change (%, negative = inhibition) at 1uM” value was 13.1%. `Cc1cccc(CCN2C(Nc3ccccc3)=NC[C@@H]2C)c1` was tested, and the “hERG current change (%, negative = inhibition) at 1uM” value was 4.48%. In the case of `CC(C)c1ccc(C2C(C(=O)c3ccco3)=C(O)C(=O)N2CC2CCCO2)cc1` (stereo not drawn), the “hERG current change (%, negative = inhibition) at 1uM” value is reported as 13.4%.
